B1: chr11:18297563:18297669:-|CDS|ENSG00000110756|unk|total|mutant (ssRNA)
RNA: GGGAGUUCUACAGUCCGACGAUCGAUCUAAUUUCUCAACUGGAAGAAUUGAUCUUAAAAUUUGAACCUUUGGAUUCAGCUUGCCGCAGCCGAAGAAGCUCCAUUUCAUCACAUGUAAGUAUUCUCACCUUUAAAGGAUUUUGUCAACAGAGGAUUGAGCAUCA
B2: chr1:22530103:22530204:+|3pUTR|ENSG00000184677|msi1|total|mutant (ssRNA)
RNA: GGGAGUUCUACAGUCCGACGAUCCAUGUACCGAGUGGGCAGGCGGUUCCAGGGAGACAAGCAGCAUGUUAUUAAAUUGGGCCCCGGCAGUUGGACGAUAAUGGAGAAAAAGCAGGGAUGCUAUAAUGAGUCCUCCCCAAGGGUCAACAGAGGAUUGAGCAUCA
B3: chr15:49134392:49134529:-|CDS|ENSG00000166200|unk|FALSE|unique (ssRNA)
RNA: GGGAGUUCUACAGUCCGACGAUCAUAUUUGCUUUCCUAGACUGAUGAUGGAGAAGAUGAUCUGAAAAAAGGUACACAGUUAUUAGAAAUAUAUGCUUUGGAAAUUCAAAUGUACACAGCACAGAAAAAUAACAAAAAACUUAACAACAGAGGAUUGAGCAUCA
B4: ENSG00000087269:stop:overlap|stop_codon|ENSG00000087269|stop_codon|NA|stop_codon (ssRNA)
RNA: GGGAGUUCUACAGUCCGACGAUCGGCUGGCUGGUCUCGAAUUCCCGACCUCAGGUAAUCCACCUGCCUUGGCCCCCCAAUUAUAGGUGUGAGCCACAGCACCCAGCCAAAAAAGUAAUUUUUUUUAGAGUAAUAAUGCUAUAACAACAGAGGAUUGAGCAUCA
B5: chr7:138585310:138585366:+|3pUTR|ENSG00000122779|msi1_unk|total|mutant (ssRNA)
RNA: GGGAGUUCUACAGUCCGACGAUCCUCUUUAAGUUGAAAAGUAAAAAAUAUAUGUGGUUUGGAUGUGUGCUUUAAUUCAGCUUCCGAAAUUAAUACCACUACCCGUGAAUUAUAUGGCCUGACAAUAUGAAUCCGGUGUACUGUCAACAGAGGAUUGAGCAUCA
B6: chr2:61188134:61188237:-|CDS|ENSG00000115464|unk|total|mutant (ssRNA)
RNA: GGGAGUUCUACAGUCCGACGAUCAUCUCUCAGUUGUGGCCAUUCCAGAGGACUCUUCCGUCAUAUGCAGCAACAUGACAUUUCCGAUACCCUGUGCCGGACCAUUGAAUCUACAAUCCAUGUCGUCACAAGGAUAUCUGGCAACAACAGAGGAUUGAGCAUCA

The list shows a part of the results.

The target in this assay is MSI1 full-length (mouse, UniProt Q61474 1-362). The assay is described as follows: nsRBNS (natural sequence RNA bind-n-seq); RBNS binding buffer (assumed for nsRBNS): 25 mM Tris pH 7.5, 150 mM KCl, 3 mM MgCl2, 0.01% Triton X-100, 500 ug/ml BSA, 20 U/ml SUPERase-In, 4 C; UNK is unkempt and MSI1 is Musashi-1; names of the RNAs are library labels; protein concentration not given here; high values mean tight binding.
Sequence of UniProt Q61474 (Q61474 whole entry): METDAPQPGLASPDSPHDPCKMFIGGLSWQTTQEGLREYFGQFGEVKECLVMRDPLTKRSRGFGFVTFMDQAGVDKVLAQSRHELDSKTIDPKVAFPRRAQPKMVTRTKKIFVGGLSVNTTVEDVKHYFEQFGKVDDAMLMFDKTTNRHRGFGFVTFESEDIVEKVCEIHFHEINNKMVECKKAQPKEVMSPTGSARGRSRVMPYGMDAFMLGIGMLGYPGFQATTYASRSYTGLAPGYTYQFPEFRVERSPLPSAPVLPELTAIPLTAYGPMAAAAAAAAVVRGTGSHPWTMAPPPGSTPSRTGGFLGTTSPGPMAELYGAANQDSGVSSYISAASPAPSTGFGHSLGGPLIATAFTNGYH
Turning to B1, the binding signal was 0.359 enrichment R.
To B2 belongs 0.627 enrichment R; to B3, 0.819 enrichment R.
The result for B4 reads 1.04 enrichment R.
The result for B5 reads 0.738 enrichment R; that for B6, 0.343 enrichment R.

Values taken from paper PMC12136788.
